# This is one part of the list. The full chains were built here from the parent and the listed change. Values near 0.05 are background.
# B1: TEV protease; numbered along this chain (parent)
# chain: MGESLFKGPRDYNPISSSICHLTNESDGHTTSLYGIGFGPFIITNKHLFRRNNGTLVVQSLHGVFKVKDTTTLQQHLVDGRDMIIIRMPKDFPPFPQKLKFREPQREERICLVTTNFQTKSMSSMVSDTSCTFPSGDGIFWKHWIQTKDGQCGSPLVSTRDGFIVGIHSASNFTNTNNYFTSVPKNFMELLTNQEAQQWVSGWRLNADSVLWGGHKVFMVKPEEPFQPVKEATQL
# Variants of: B1
# Assay: raw area under fraction-flipped curve 0-4 h after induction (AUC4h, not background-subtracted), DNA-recorder readout of cleavage of the substrate (dimensionless); higher = more cleavage of the substrate by the protease variant
# Conditions: temperature: 34 °C; time window: 0-4 h after rhamnose induction
# Experimental: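 In vivo DNA recorder in E. coli TOP10(DE3) ΔrhaA at 34 °C. Each TEVp single-site mutant (parent TEVp 0) is paired with a single-site variant of the 7-mer TEVs (canonical ENLYFQ|S). The substrate sits between flexible linkers in a Bxb1-sfGFP-TEVs-SsrA fusion, so cleavage stabilises Bxb1 and speeds flipping of a recombination array, read by NGS. The value is the raw area under the fraction-flipped curve over 0-4 h after rhamnose induction (AUC4h), with ≥20 reads per time point. It is not background-subtracted; inactive controls average about 0.047.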
# 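Also: Bxb1 expression induced with 0.2% (w/v) L-rhamnose at OD600 near 0.5, cultures sampled hourly, flipped fraction per protease–substrate barcode pair counted by paired-end Illumina sequencing.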
Variant,area with substrate EALYFQS,area with substrate ECLYFQS,area with substrate EDLYFQS,area with substrate EELYFQS,area with substrate EFLYFQS,area with substrate EGLYFQS,area with substrate EHLYFQS,area with substrate EILYFQS,area with substrate EKLYFQS,area with substrate EMLYFQS,area with substrate EPLYFQS,area with substrate EQLYFQS,area with substrate ERLYFQS,area with substrate ESLYFQS,area with substrate ETLYFQS,area with substrate EVLYFQS,area with substrate EWLYFQS,area with substrate EYLYFQS,area with substrate ELLYFQS
MGESLFKGPRDYQPISSSICHLTNESDGHTTSLYGIGFGPFIITNKHLFRRNNGTLVVQSLHGVFKVKDTTTLQQHLVDGRDMIIIRMPKDFPPFPQKLKFREPQREERICLVTTNFQTKSMSSMVSDTSCTFPSGDGIFWKHWIQTKDGQCGSPLVSTRDGFIVGIHSASNFTNTNNYFTSVPKNFMELLTNQEAQQWVSGWRLNADSVLWGGHKVFMVKPEEPFQPVKEATQL [N13Q],0.115,0.108,0.13,0.148,0.125,0.119,0.122,0.115,0.109,0.117,0.151,0.128,0.0914,0.119,0.107,0.0991,0.0965,0.11,–
MGESLFKGPRDYCPISSSICHLTNESDGHTTSLYGIGFGPFIITNKHLFRRNNGTLVVQSLHGVFKVKDTTTLQQHLVDGRDMIIIRMPKDFPPFPQKLKFREPQREERICLVTTNFQTKSMSSMVSDTSCTFPSGDGIFWKHWIQTKDGQCGSPLVSTRDGFIVGIHSASNFTNTNNYFTSVPKNFMELLTNQEAQQWVSGWRLNADSVLWGGHKVFMVKPEEPFQPVKEATQL [N13C],0.222,0.097,0.118,0.114,0.0939,0.113,0.0916,0.107,0.112,0.154,0.122,0.139,0.108,0.103,0.117,0.0933,0.107,0.103,0.122
MGESLFKGPRDQNPISSSICHLTNESDGHTTSLYGIGFGPFIITNKHLFRRNNGTLVVQSLHGVFKVKDTTTLQQHLVDGRDMIIIRMPKDFPPFPQKLKFREPQREERICLVTTNFQTKSMSSMVSDTSCTFPSGDGIFWKHWIQTKDGQCGSPLVSTRDGFIVGIHSASNFTNTNNYFTSVPKNFMELLTNQEAQQWVSGWRLNADSVLWGGHKVFMVKPEEPFQPVKEATQL [Y12Q],0.0918,0.11,0.133,0.0997,0.0817,0.107,0.112,0.106,0.115,0.124,0.123,0.113,–,0.0935,0.131,0.109,0.115,0.151,0.0974
MGESLFKGPRDINPISSSICHLTNESDGHTTSLYGIGFGPFIITNKHLFRRNNGTLVVQSLHGVFKVKDTTTLQQHLVDGRDMIIIRMPKDFPPFPQKLKFREPQREERICLVTTNFQTKSMSSMVSDTSCTFPSGDGIFWKHWIQTKDGQCGSPLVSTRDGFIVGIHSASNFTNTNNYFTSVPKNFMELLTNQEAQQWVSGWRLNADSVLWGGHKVFMVKPEEPFQPVKEATQL [Y12I],0.151,0.074,0.147,0.0857,0.149,0.0954,0.0927,0.096,0.101,0.069,–,0.0762,0.0915,0.0939,0.103,0.0893,0.0892,0.104,0.0878
MGESLFKGPRDVNPISSSICHLTNESDGHTTSLYGIGFGPFIITNKHLFRRNNGTLVVQSLHGVFKVKDTTTLQQHLVDGRDMIIIRMPKDFPPFPQKLKFREPQREERICLVTTNFQTKSMSSMVSDTSCTFPSGDGIFWKHWIQTKDGQCGSPLVSTRDGFIVGIHSASNFTNTNNYFTSVPKNFMELLTNQEAQQWVSGWRLNADSVLWGGHKVFMVKPEEPFQPVKEATQL [Y12V],0.138,–,–,–,0.0902,0.0949,0.0871,0.129,0.101,0.109,0.123,0.125,0.0905,0.106,–,–,0.107,–,0.105
MGESMFKGPRDYNPISSSICHLTNESDGHTTSLYGIGFGPFIITNKHLFRRNNGTLVVQSLHGVFKVKDTTTLQQHLVDGRDMIIIRMPKDFPPFPQKLKFREPQREERICLVTTNFQTKSMSSMVSDTSCTFPSGDGIFWKHWIQTKDGQCGSPLVSTRDGFIVGIHSASNFTNTNNYFTSVPKNFMELLTNQEAQQWVSGWRLNADSVLWGGHKVFMVKPEEPFQPVKEATQL [L5M],0.153,–,–,0.18,0.167,0.144,–,0.115,–,0.179,0.161,0.159,0.14,0.131,–,0.113,0.121,–,0.119
MGESRFKGPRDYNPISSSICHLTNESDGHTTSLYGIGFGPFIITNKHLFRRNNGTLVVQSLHGVFKVKDTTTLQQHLVDGRDMIIIRMPKDFPPFPQKLKFREPQREERICLVTTNFQTKSMSSMVSDTSCTFPSGDGIFWKHWIQTKDGQCGSPLVSTRDGFIVGIHSASNFTNTNNYFTSVPKNFMELLTNQEAQQWVSGWRLNADSVLWGGHKVFMVKPEEPFQPVKEATQL [L5R],0.151,0.143,–,–,–,–,–,–,–,0.13,–,–,–,0.117,–,0.111,–,–,–
MGESDFKGPRDYNPISSSICHLTNESDGHTTSLYGIGFGPFIITNKHLFRRNNGTLVVQSLHGVFKVKDTTTLQQHLVDGRDMIIIRMPKDFPPFPQKLKFREPQREERICLVTTNFQTKSMSSMVSDTSCTFPSGDGIFWKHWIQTKDGQCGSPLVSTRDGFIVGIHSASNFTNTNNYFTSVPKNFMELLTNQEAQQWVSGWRLNADSVLWGGHKVFMVKPEEPFQPVKEATQL [L5D],0.13,0.121,–,–,0.131,–,–,–,0.103,0.111,–,0.133,–,0.112,–,0.0765,–,0.124,0.0753
MGESLFKGQRDYNPISSSICHLTNESDGHTTSLYGIGFGPFIITNKHLFRRNNGTLVVQSLHGVFKVKDTTTLQQHLVDGRDMIIIRMPKDFPPFPQKLKFREPQREERICLVTTNFQTKSMSSMVSDTSCTFPSGDGIFWKHWIQTKDGQCGSPLVSTRDGFIVGIHSASNFTNTNNYFTSVPKNFMELLTNQEAQQWVSGWRLNADSVLWGGHKVFMVKPEEPFQPVKEATQL [P9Q],0.14,0.109,–,0.125,0.0857,0.0935,0.129,0.107,0.119,–,0.147,0.0048,0.112,0.1,0.127,–,–,0.135,0.0931
MGYSLFKGPRDYNPISSSICHLTNESDGHTTSLYGIGFGPFIITNKHLFRRNNGTLVVQSLHGVFKVKDTTTLQQHLVDGRDMIIIRMPKDFPPFPQKLKFREPQREERICLVTTNFQTKSMSSMVSDTSCTFPSGDGIFWKHWIQTKDGQCGSPLVSTRDGFIVGIHSASNFTNTNNYFTSVPKNFMELLTNQEAQQWVSGWRLNADSVLWGGHKVFMVKPEEPFQPVKEATQL [E3Y],0.136,0.124,0.16,–,0.111,–,–,–,0.167,0.133,0.0266,0.115,0.112,0.133,–,0.134,–,–,–
MGESLFKGPREYNPISSSICHLTNESDGHTTSLYGIGFGPFIITNKHLFRRNNGTLVVQSLHGVFKVKDTTTLQQHLVDGRDMIIIRMPKDFPPFPQKLKFREPQREERICLVTTNFQTKSMSSMVSDTSCTFPSGDGIFWKHWIQTKDGQCGSPLVSTRDGFIVGIHSASNFTNTNNYFTSVPKNFMELLTNQEAQQWVSGWRLNADSVLWGGHKVFMVKPEEPFQPVKEATQL [D11E],0.11,0.0952,0.121,0.121,0.084,0.087,0.099,0.135,0.105,0.0847,0.117,0.125,–,0.1,0.111,0.0873,0.0926,0.126,0.0876
MGELLFKGPRDYNPISSSICHLTNESDGHTTSLYGIGFGPFIITNKHLFRRNNGTLVVQSLHGVFKVKDTTTLQQHLVDGRDMIIIRMPKDFPPFPQKLKFREPQREERICLVTTNFQTKSMSSMVSDTSCTFPSGDGIFWKHWIQTKDGQCGSPLVSTRDGFIVGIHSASNFTNTNNYFTSVPKNFMELLTNQEAQQWVSGWRLNADSVLWGGHKVFMVKPEEPFQPVKEATQL [S4L],0.0626,0.071,0.0667,0.0952,0.0793,0.0815,0.0716,0.0786,0.0827,0.097,0.0796,0.0817,0.0752,0.0816,0.114,0.0626,0.0779,–,0.0668
MGESLFKGPRDYNPLSSSICHLTNESDGHTTSLYGIGFGPFIITNKHLFRRNNGTLVVQSLHGVFKVKDTTTLQQHLVDGRDMIIIRMPKDFPPFPQKLKFREPQREERICLVTTNFQTKSMSSMVSDTSCTFPSGDGIFWKHWIQTKDGQCGSPLVSTRDGFIVGIHSASNFTNTNNYFTSVPKNFMELLTNQEAQQWVSGWRLNADSVLWGGHKVFMVKPEEPFQPVKEATQL [I15L],0.14,0.105,0.121,0.125,0.148,0.111,0.0972,0.0982,0.0895,0.107,–,0.0736,0.0946,0.0973,0.117,0.114,0.0661,0.11,0.0981
MGESLFKGPRDYNPFSSSICHLTNESDGHTTSLYGIGFGPFIITNKHLFRRNNGTLVVQSLHGVFKVKDTTTLQQHLVDGRDMIIIRMPKDFPPFPQKLKFREPQREERICLVTTNFQTKSMSSMVSDTSCTFPSGDGIFWKHWIQTKDGQCGSPLVSTRDGFIVGIHSASNFTNTNNYFTSVPKNFMELLTNQEAQQWVSGWRLNADSVLWGGHKVFMVKPEEPFQPVKEATQL [I15F],0.105,0.098,0.102,0.122,0.101,0.0868,0.0971,0.0908,0.1,0.106,0.105,0.107,0.0914,0.0997,0.0988,0.0954,–,0.103,0.0699
MGESLFKGPRDYNPNSSSICHLTNESDGHTTSLYGIGFGPFIITNKHLFRRNNGTLVVQSLHGVFKVKDTTTLQQHLVDGRDMIIIRMPKDFPPFPQKLKFREPQREERICLVTTNFQTKSMSSMVSDTSCTFPSGDGIFWKHWIQTKDGQCGSPLVSTRDGFIVGIHSASNFTNTNNYFTSVPKNFMELLTNQEAQQWVSGWRLNADSVLWGGHKVFMVKPEEPFQPVKEATQL [I15N],0.0817,0.0708,0.089,0.0678,0.0804,0.0694,0.0912,0.0831,0.0578,0.0839,0.1,0.0777,0.0757,0.0683,–,0.1,0.0677,0.0772,0.0809
MGESLFKMPRDYNPISSSICHLTNESDGHTTSLYGIGFGPFIITNKHLFRRNNGTLVVQSLHGVFKVKDTTTLQQHLVDGRDMIIIRMPKDFPPFPQKLKFREPQREERICLVTTNFQTKSMSSMVSDTSCTFPSGDGIFWKHWIQTKDGQCGSPLVSTRDGFIVGIHSASNFTNTNNYFTSVPKNFMELLTNQEAQQWVSGWRLNADSVLWGGHKVFMVKPEEPFQPVKEATQL [G8M],0.109,0.124,–,0.124,–,–,–,0.0879,0.0608,0.0876,–,0.115,0.105,0.107,0.102,–,0.0763,–,–
MGESLFKNPRDYNPISSSICHLTNESDGHTTSLYGIGFGPFIITNKHLFRRNNGTLVVQSLHGVFKVKDTTTLQQHLVDGRDMIIIRMPKDFPPFPQKLKFREPQREERICLVTTNFQTKSMSSMVSDTSCTFPSGDGIFWKHWIQTKDGQCGSPLVSTRDGFIVGIHSASNFTNTNNYFTSVPKNFMELLTNQEAQQWVSGWRLNADSVLWGGHKVFMVKPEEPFQPVKEATQL [G8N],0.208,–,–,–,0.114,0.113,0.102,–,–,0.12,–,0.123,–,–,–,–,–,–,–
MGESLFKCPRDYNPISSSICHLTNESDGHTTSLYGIGFGPFIITNKHLFRRNNGTLVVQSLHGVFKVKDTTTLQQHLVDGRDMIIIRMPKDFPPFPQKLKFREPQREERICLVTTNFQTKSMSSMVSDTSCTFPSGDGIFWKHWIQTKDGQCGSPLVSTRDGFIVGIHSASNFTNTNNYFTSVPKNFMELLTNQEAQQWVSGWRLNADSVLWGGHKVFMVKPEEPFQPVKEATQL [G8C],0.0981,–,–,–,–,–,–,–,–,–,–,–,–,–,–,–,–,–,–
